{
  "source": "PubChem BioAssay AID1671188",
  "about": "(National Center for Advancing Translational Sciences (NCATS), 2021)",
  "note": "Screen size: about 100,000 compounds; about 250 (0.25%) were called active. The inconclusive results got no clear call from the source; some entries with a clear call stand among them for comparison. The call rests on the fitted dose curve; in most records, active means well fitted inhibition curve with a large enough effect; inconclusive means small, poorly fitted or top-dose-only effect; inactive means flat fitted curve, though single readings scatter. Potencies of inconclusive entries are left out as doubtful fits. On the % scale 0 is the no-effect control and ±100 the full control effect; potency means the concentration at half of the fitted maximal effect; tags describe the fitted curve by direction and shape.",
  "data": [
    {"biological_target": "Alanine aminotransferase 2 (Homo sapiens) (UniProt Q8TD30)", "sequence (Q8TD30 whole entry, looked up)": "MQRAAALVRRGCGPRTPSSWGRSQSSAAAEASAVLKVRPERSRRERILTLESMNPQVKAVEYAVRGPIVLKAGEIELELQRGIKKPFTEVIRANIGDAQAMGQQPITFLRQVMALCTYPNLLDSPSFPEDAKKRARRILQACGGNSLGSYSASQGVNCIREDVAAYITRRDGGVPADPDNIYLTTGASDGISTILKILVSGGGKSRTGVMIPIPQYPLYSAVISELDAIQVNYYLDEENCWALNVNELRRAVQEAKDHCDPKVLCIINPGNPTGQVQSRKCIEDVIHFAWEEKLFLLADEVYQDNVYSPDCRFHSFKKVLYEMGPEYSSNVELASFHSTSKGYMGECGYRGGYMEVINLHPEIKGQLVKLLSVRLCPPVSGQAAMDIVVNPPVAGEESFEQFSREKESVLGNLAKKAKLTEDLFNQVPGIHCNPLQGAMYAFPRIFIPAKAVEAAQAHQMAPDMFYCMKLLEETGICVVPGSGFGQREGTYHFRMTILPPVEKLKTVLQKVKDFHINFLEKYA", "test": "Primary qHTS assay for inhibitors of Glutamate pyruvate transaminase 2 (GPT2); further: nearly all actives have a fitted effect of over 60% in size", "details": "Recombinant GPT2, coupled pyruvate oxidase/HRP Amplex Red fluorescence; activity change, negative = inhibition: at 57.7 µM (top of the series) unless noted; series mostly up to 57.7 µM", "in_short": "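GPT2 10ng/uL, a-KG 250uM, L-Ala 2mM, HEPES pH7.5 + 0.0001% Tween; 30 min RT. Then Amplex mix (PO/HRP/ThPP), 30 min RT dark, fluorescence. AOA 50uM used as positive control.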", "values": [
      {"smiles": "Cc1ccc([S+](=O)([O-])N2CCC3(CCN(Cc4cccs4)c4ccccc4O3)CC2)cc1", "Potency": "inconclusive [inhibitor, partial curve, poor fit]"},
      {"smiles": "CNC(=O)c1cccc2c1CCN2C(=O)Nc1ccc(C)cc1", "outcome": "inactive"},
      {"smiles": "COc1ccc(CCNC(=O)c2cc3c(N4CCSCC4)nc(C)cn3n2)cc1OC", "activity change, negative = inhibition": "inactive: 0.878%"},
      {"smiles": "Cc1ccccc1CN1CCOc2cc([S+](N)(=O)[O-])ccc2C1", "Potency": "inconclusive [inhibitor, full curve, poor fit]"},
      {"smiles": "COc1ccc(C(=O)N[C@@H]2CCC[C@@H]2C(=O)N2CCC(Cc3ccccc3)CC2)cc1", "Potency": "inconclusive [inhibitor, single point]"},
      {"smiles": "Cc1ccc(CNC(=O)[C@@]23CCCC[C@H]2N(C)C(=O)CC3)cc1", "outcome": "inactive"},
      {"smiles": "COc1cccc(N2C(=O)NC(=NC3CCCC3)C23CCN(Cc2ccc(N(C)C)cc2)C3)c1", "note": "(configuration not stated)", "outcome": "inactive"},
      {"smiles": "COc1ccccc1-c1[nH]nc2ncc(C(=O)NCCc3ccccn3)nc12", "activity change, negative = inhibition": "inactive: 3.27% [at 88.5 µM]"},
      {"smiles": "COc1cccc(CN2CCCC3(CCN(c4nc5ccccc5o4)C3)C2=O)c1", "note": "(configuration not stated)", "Potency": "inconclusive [inhibitor, single point]"},
      {"smiles": "Cn1nc(-c2ccncc2)cc1NC(=O)c1ccccc1F", "activity change, negative = inhibition": "inactive: -3.23% [at 88.5 µM]"},
      {"smiles": "O=C1Nc2ccccc2CC12CCN2[S+](=O)([O-])c1ccccc1", "note": "(configuration not stated)", "outcome": "inactive [at 88.5 µM]"},
      {"smiles": "CC(C)C[C@@H]1N[C@H](C(=O)O)Cc2cn(CC3CCC3)c3cccc1c23", "Potency": "inconclusive [inhibitor, single point]"},
      {"smiles": "Cc1cccc(C(=O)N2CCC3(CC2)CC(c2ccccc2)CN(C)C3)n1", "note": "(configuration not stated)", "Potency": "inconclusive [inhibitor, single point]"},
      {"smiles": "CN(N=O)C(=O)N[C@H]1C(O)OC(CO)[C@@H](O)[C@H]1O", "note": "(some centres not stated)", "Potency": "inconclusive [inhibitor, full curve, poor fit]"},
      {"smiles": "CC(=O)N1CCC(C2CCN(Cc3ccccc3C)C2)CC1", "note": "(configuration not stated)", "activity change, negative = inhibition": "inactive: 2.71%"},
      {"smiles": "Cc1ccc(OCc2nc(C3CCN(C(=O)NCc4ccccc4)C3)no2)cc1", "note": "(configuration not stated)", "Potency": "inconclusive [inhibitor, single point]"},
      {"smiles": "COCCN1C(=O)c2cccn2CC1CNC(=O)CCc1nc2ccccc2s1", "note": "(configuration not stated)", "outcome": "inactive"},
      {"smiles": "CCn1nc(CC(C)C)cc1C(=O)N(C)C1CCCN(C2Cc3ccccc3C2)C1", "note": "(configuration not stated)", "Potency": "inconclusive [inhibitor, single point]"},
      {"smiles": "COc1cc(-c2ccnc3nc(Cc4ccc(F)cc4)nn23)cc(OC)c1OC", "outcome": "inactive"},
      {"smiles": "CCc1nc2c(c(-c3ccc(O)cc3)n1)CN(Cc1ccc(NC(C)=O)cc1)CC2", "Potency": "inconclusive [inhibitor, single point]"},
      {"smiles": "O=C1[C@@H]2C[C@@H](CN2C2COC2)Oc2ccccc2N1Cc1ccc(OC(F)(F)F)cc1", "Potency": "inconclusive [inhibitor, single point]"},
      {"smiles": "CC(C)CN(CC1CN(C(=O)Cc2cccs2)CCO1)C(=O)c1cccc2ccccc12", "note": "(configuration not stated)", "Potency": "inconclusive [inhibitor, partial curve, poor fit]"},
      {"smiles": "Cc1csc(C(C)N(C)C(=O)c2cc(Cn3nc(C)cc3C)[nH]n2)n1", "note": "(configuration not stated)", "Potency": "inconclusive [inhibitor, single point]"},
      {"smiles": "O=C(c1cccc2[nH]ccc12)N1CCC(N2C(=O)C3(CCCCC3)C2c2ccncc2)CC1", "note": "(configuration not stated)", "outcome": "inactive"},
      {"smiles": "CC(C)CN1CCN(C(=O)CCC[C@@H]2[C@H]3CCCN4CCC[C@@H](CN2C(=O)c2cccnc2)[C@@H]34)CC1", "activity change, negative = inhibition": "inactive: -9.96%"},
      {"smiles": "CCN1CCN(C(=O)Cn2cccc(OC)c2=O)CC1(C)C", "Potency": "inconclusive [inhibitor, single point]"},
      {"smiles": "CCCN(CCO)C(=O)CC1C(=O)NCCN1C1Cc2ccccc2C1", "note": "(configuration not stated)", "Potency": "inconclusive [inhibitor, single point]"},
      {"smiles": "Cn1ncc2c(C(=O)NCc3ccc(F)cc3)cc(-c3ccc(F)cc3)nc21", "Potency": "inconclusive [inhibitor, single point]"},
      {"smiles": "COc1ccccc1CN1CCNc2cc(-c3ccnc(C)c3)ncc2C1", "activity change, negative = inhibition": "inactive: -5.08% [at 88.5 µM]"},
      {"smiles": "COCCN1C(=O)N(C)C(=O)C12CCN(Cc1ccc(C(=O)OC)cc1)C2", "note": "(configuration not stated)", "activity change, negative = inhibition": "inactive: -2.69%"},
      {"smiles": "C[S+](=O)([O-])c1ccc(-c2cc(C(=O)NCc3ccc(F)cc3)nn3cccc23)cc1", "Potency": "inconclusive [inhibitor, full curve, poor fit]"},
      {"smiles": "CC(=O)c1ccc(NC(=O)Cn2c(-c3cnccn3)nc(C)c(C)c2=O)cc1", "activity change, negative = inhibition": "inactive: 3.85%"},
      {"smiles": "C=CCC(=O)N1CCCC(N2CCN(c3cccc(C(F)(F)F)c3)CC2)C1", "note": "(configuration not stated)", "Potency": "inconclusive [inhibitor, single point]"},
      {"smiles": "COCCn1c(C)cc(C(=O)N2CCC3(CC2)CC(O)CCO3)c1C", "note": "(configuration not stated)", "activity change, negative = inhibition": "inactive: 4.65%"},
      {"smiles": "Cn1ccnc1-c1cn(CC2(c3ccccc3F)CCCC2)nn1", "Potency": "inconclusive [inhibitor, partial curve, poor fit]"},
      {"smiles": "COc1ccc(CN2CC3(C2)C(=O)N(Cc2cccc(Cl)c2)C(=O)[C@@H]2C[C@@H](O)CN23)c2ccccc12", "Potency": "inconclusive [inhibitor, single point]"},
      {"smiles": "COc1ccc(Nc2cc3c(cn2)CN(C)CCN3)cc1OC", "Potency": "inconclusive [inhibitor, full curve, poor fit]"},
      {"smiles": "O=C(c1ccc(F)cc1)N1CCC(c2nn(-c3ccc(Cl)cc3)c(=O)[nH]2)CC1", "Potency": "inconclusive [inhibitor, partial curve]"},
      {"smiles": "CCN(CC)C(=O)C(C)[C@@H]1CC[C@@]2(C)CC[C@H](NC(=O)c3cnccn3)[C@@H](C)[C@@H]2[C@H]1O", "note": "(some centres not stated)", "Potency": "inconclusive [inhibitor, full curve, poor fit]"},
      {"smiles": "CN1C(=O)CS(=O)(=O)C12CCN(C(=O)COc1ccc(Cl)cc1)CC2", "activity change, negative = inhibition": "inactive: -1.43%"},
      {"smiles": "COc1ccc(CC(=O)N2CCCN(c3cc(-c4ccc(Cl)cc4)[nH]n3)CC2)cc1", "Potency": "inconclusive [inhibitor, partial curve]"},
      {"smiles": "Cc1ccc(CNC(=O)c2ccc(OC3CCN(S(C)(=O)=O)CC3)c(Cl)c2)s1", "Potency": "inconclusive [inhibitor, partial curve, poor fit]"},
      {"smiles": "OCC1(CN2CCCC2)CCN(Cc2ccc(Cl)cc2)CC1", "activity change, negative = inhibition": "inactive: 2.99%"},
      {"smiles": "Oc1ccccc1CN1CCNc2cc(Nc3ccccc3)ncc2C1", "activity change, negative = inhibition": "inactive: 3.09% [at 88.5 µM]"},
      {"smiles": "O=C(NCCc1cnc[nH]1)c1cc(-c2ccccc2F)cc2c1OCCN2Cc1cccnc1", "activity change, negative = inhibition": "inactive: 0.022%"},
      {"smiles": "COc1ccc(-c2cc(N3CCCC(NC(=O)c4cccc(C)c4)C3)n[nH]2)cc1", "note": "(configuration not stated)", "Potency": "inconclusive [inhibitor, single point]"},
      {"smiles": "COc1ccc(N2CCN(C3CCCN(C(=O)C(C)(C)N)C3)CC2)cc1", "note": "(configuration not stated)", "Potency": "inconclusive [inhibitor, full curve, poor fit]"},
      {"smiles": "COc1ccc(C(=O)Nc2ccc(-c3noc([C@@H]4CCCN4C)n3)cn2)cc1", "activity change, negative = inhibition": "inactive: 3.33% [at 88.5 µM]"},
      {"smiles": "O=C(Nc1cccc(-c2ccc(N3CCCC3)nn2)c1)Nc1cc(F)ccc1F", "Potency": "inconclusive [inhibitor, partial curve, poor fit]"},
      {"smiles": "CC1(c2nc3c(C(N)=O)cccc3[nH]2)CCCN1", "note": "(configuration not stated)", "Potency": "inconclusive [inhibitor, single point]"},
      {"smiles": "Cn1nc(NC(=O)Cc2c[nH]c(=O)[nH]c2=O)c2c(N3CCOCC3)cccc21", "Potency": "inconclusive [inhibitor, single point]"},
      {"smiles": "COCCN1C(=O)[C@@H]2C[C@@H](CN2Cc2ccc3c(c2)OCO3)Oc2ccccc21", "Potency": "inconclusive [inhibitor, partial curve, poor fit]"},
      {"smiles": "COc1cccc(CN2CCCC3(Cc4ccccc4CNC3=O)C2)n1", "note": "(configuration not stated)", "outcome": "inactive"},
      {"smiles": "CC(=O)Oc1cccc(O)c1", "activity change, negative = inhibition": "inactive: -6.99%"},
      {"smiles": "O=C1NCCCCCN(C(=O)c2nccc3ccccc23)[C@H]2CCC[C@@H]12", "Potency": "inconclusive [inhibitor, single point]"},
      {"smiles": "COCC(=O)N1CCN(C(=O)NC(C)C)C[C@H]1C(=O)N[C@H](Cc1cccnc1)C(=O)OC", "activity change, negative = inhibition": "inactive: -6.42%"},
      {"smiles": "CN(C)C[C@@H]1CN(C)C[C@H]1NC(=O)Cc1ccc(Cl)cc1", "Potency": "inconclusive [inhibitor, full curve, poor fit]"},
      {"smiles": "Cc1noc([C@@H]2CN(Cc3ccco3)C[C@H]2CO)n1", "Potency": "inconclusive [inhibitor, single point]"},
      {"smiles": "COc1ccc(CN2CCn3c(nn(-c4ccc(Cl)cc4)c3=O)C2)cc1", "Potency": "inconclusive [inhibitor, partial curve, poor fit]"},
      {"smiles": "CCC(CO)Nc1ncnc2c1CN(C1CCCNC1)C(=O)CN2C", "note": "(configuration not stated)", "Potency": "inconclusive [inhibitor, partial curve, poor fit]"},
      {"smiles": "O=C(C1CCCC1)N1CCCC(C(=O)N2CCC(c3nc4ncccc4[nH]3)C2)C1", "note": "(configuration not stated)", "Potency": "inconclusive [inhibitor, partial curve, poor fit]"},
      {"smiles": "Cc1ccccc1NC(=O)Nc1ccnn1C1CCN(C(=O)CCN)CC1", "Potency": "inconclusive [inhibitor, single point]"},
      {"smiles": "CC1=C[C@@H](CNCc2ccc(F)cc2)[C@H](C(C)C)C[C@H]1Cc1nnc(C)o1", "activity change, negative = inhibition": "inactive: 2.42% [at 88.5 µM]"},
      {"smiles": "O=S(=O)(Nc1cccn2nc(C3CC3)nc12)c1cccnc1", "Potency": "inconclusive [inhibitor, partial curve, poor fit]"},
      {"smiles": "COc1ccc(OC)c(NC(=O)C2CN(S(=O)(=O)C3CC3)CC23CCCCC3)c1", "note": "(configuration not stated)", "Potency": "inconclusive [inhibitor, partial curve, poor fit]"},
      {"smiles": "Cc1occc1C(=O)N1CCC2(CCCN(CC3CCCCC3)C2=O)C1", "note": "(configuration not stated)", "Potency": "inconclusive [inhibitor, partial curve, poor fit]"},
      {"smiles": "COc1ccc(-c2cc(N3CCCN(C(=O)c4ccc(Cl)cc4)CC3)n[nH]2)cc1", "activity change, negative = inhibition": "inactive: -4.66%"}
    ]}
  ]
}
